The text below walks through data of patent publication US20210171576A1, “METHODS FOR TREATING CANCER WITH ACYLDEPSIPEPTIDE ANALOGS” (priority 2018, published 2021).

One experiment has as its system MDA-MB-231 WT cells. As to the kind of experiment: Cytotoxicity test, SRB staining, 72 hours. It is filed as cell-based, human. Particulars: MDA-MB-231, 72 hours. For orientation: In SRB staining, fixed cells bind dye roughly in proportion to their protein.
In the next experiment the test system is MDA-MB-468 cells. As to the kind of experiment: Cytotoxicity test, SRB staining, 72 hours. In kind it is cell-based, human. The following applies: MDA-MB-468, 72 hours.
The next experiment relates to MCF-7 cells. As to the kind of experiment: Cytotoxicity test, SRB staining, 72 hours. It is filed as cell-based, human. Particulars: MCF-7, 72 hours.
The target of experiment [1] is T1, human mitochondrial CIpP (HsCIpP) (Homo sapiens, UniProt Q16740).
T1 construct: made in house; host or cells: E. coli SG1146 (BL21(DE3) ΔclpP::cat)
T1 sequence (Q16740 57-277): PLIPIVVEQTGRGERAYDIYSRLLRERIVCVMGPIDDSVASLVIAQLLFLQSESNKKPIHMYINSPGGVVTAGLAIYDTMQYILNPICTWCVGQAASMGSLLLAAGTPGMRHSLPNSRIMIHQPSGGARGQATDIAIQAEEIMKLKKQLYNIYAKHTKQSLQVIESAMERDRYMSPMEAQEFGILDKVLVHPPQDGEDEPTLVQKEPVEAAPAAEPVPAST
As to the kind of experiment: Screen of ADEP analogs against HsCIpP: relative degradation (RD) index, casein-FITC degradation relative to E. coli CIpAP. It is filed as biochemical. The arrangement: key: casein-FITC degradation by HsClpP relative to EcClpAP. The following applies: for Hs RD25: RD value at 25 μM of the ADEP analog, measure of ability to activate HsCIpP. The text has this: Structural analogs of acyldepsipeptide (ADEP) (Goodreid et al., 2016) that were previously developed as potential antibiotics against bacterial CIpP were screened and assessed for their ability to activate and dysregulate the protease activity of HsCIpP, by measuring their relative degradation (RD) index. Note that ADEP-28 was also previously reported by Carney et al. (2014). Details of the experimental protocol have been described in Leung et al., 2011. The RD index is defined as follows: […]
Δφ is the change in fluorescence after 6 hr of starting the reaction measured using 485 nm excitation and 535 nm emission, which primarily detects the signal from casein-FITC. E. coli CIpAP was used as a benchmark for maximum CIpP proteolytic activity. The CIpP in the numerator can be from any other organism. RD25 measurements refer to the measurement in the presence of 25 μM compound. All ADEP analogs were first screened at 25 μM, and their RD25 scores were calculated using the above formula and method as described in Leung et al., 2011 (FIG. 1A). Those that achieved RD25≥0.87 were screened a second time at 5 μM, followed by calculation of their RD5 scores. The top analogs with RD5≥0.74 were screened a third time at 1 μM, followed by calculation of their RD1 scores (FIG. 1B).
To identify ADEP analogs that allow HsCIpP to degrade folded proteins independent of HsCIpX+ATP (i.e., that activate or dysregulate HsCIpP), the inventors employed the in vitro screening method that was used for identifying small molecule activators of Escherichia coli CIpP (EcCIpP) (Leung et al., 2011). In this approach, the ability of HsCIpP to degrade FITC-labeled casein (casein-FITC) was measured and compared to the ability of EcCIpAP to degrade casein-FITC. This is quantitatively expressed as relative degradation (RD) index (Leung et al., 2011).

In a further experiment the test system is HEK293 T-REx WT cells. As to the kind of experiment: Cytotoxicity, SRB staining, 72 hours. It is filed as cell-based, human.
In the next experiment the test system is MDA-MB-231 CLPP-KD cells. As to the kind of experiment: Cytotoxicity test, SRB staining, 72 hours. It is filed as cell-based, human. The following applies: MDA-MB-231 CLPP-KD, 72 hours; estimated by visual examination.
The test system of experiment [2] is HEK293 T-REx CLPP^−/− cells. As to the kind of experiment: Cytotoxicity, SRB staining, 72 hours. Particulars: estimated by visual examination.

Where a SMILES comes first, the peptide text is derived from it. Bridges are numbered along the chain shown (N, C = ends). [ ]: non-standard residue; d: D form. The star is where a group is joined. Phe(3,5-F2) = N[C@@H](Cc1cc(F)cc(F)c1)C(=O)O; Pip(4S-Me) = C[C@H]1CCN[C@H](C(=O)O)C1; Pro(4R-Me) = C[C@H]1CN[C@H](C(=O)O)C1; Heptenoyl(2E) = CCCC/C=C/C(=O)*; aThr = C[C@H](O)[C@H](N)C(=O)O; Pip = O=C(O)[C@@H]1CCCCN1; X1 = CCC/C=C/C=C/C(=O)*

As to `CO[C@@]12[C@H](COC(N)=O)C3=C(C(=O)C(C)=C(N)C3=O)N1C[C@@H]1N[C@@H]12` [Mitomycin-C, reference compound], the IC50 amounted to 800 ± 200 nM in the experiment on MDA-MB-231 WT cells, 1500 ± 400 nM with MDA-MB-468 cells and 400 ± 200 nM with MCF-7 cells.
For `CCCC/C=C/C(=O)N[C@@H](Cc1cc(F)cc(F)c1)C(=O)N[C@@H]1C(=O)N2CCC[C@H]2C(=O)N2CC[C@H](C)C[C@H]2C(=O)N[C@@H](C)C(=O)N2CCC[C@H]2C(=O)O[C@H]1C` [ADEP-28] ({Heptenoyl(2E)}-[Phe(3,5-F2)][aThr]P[Pip(4S-Me)]AP; ester 2-C), in experiment [1], the “Hs RD25” value was determined as 0.95.
Take `CCC/C=C/C=C/C(=O)N[C@@H](Cc1cc(F)cc(F)c1)C(=O)N[C@@H]1C(=O)N2CCC[C@H]2C(=O)N2CCCC[C@H]2C(=O)N[C@@H](C)C(=O)N2C[C@H](C)C[C@H]2C(=O)O[C@H]1C` [ADEP-14] (X1-[Phe(3,5-F2)][aThr]P[Pip]A[Pro(4R-Me)]; ester 2-C): the “Hs RD1” value in experiment [1] (RD value at 1 μM of the ADEP analog) worked out at 0.79. Further, the “Hs RD25” value in experiment [1] is 1.00. In addition, the IC50 is 1010 ± 50 nM in the experiment with HEK293 T-REx WT cells; above 10000 nM in the experiment with MDA-MB-231 CLPP-KD cells; 950 ± 60 nM with MDA-MB-468 cells; 1600 ± 200 nM with MCF-7 cells; above 10000 nM in experiment [2].

As a reminder, the IC50 is the concentration that gives 50% inhibition.
